Consider 45 molecules from PMC4336329 (PLoS ONE, 2015).

SMILES strings stand for the structures. The whole screen tested about 310,000 compounds, of which about 14,000 (4.5%) showed an effect of 50% or more. The effect is printed as a negative number. The list shows a part of the results.
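Note: peak tail current of the secondary pulse compared with the same well before compound.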

In the experiment the target is human ether-à-go-go-related gene (hERG) potassium channel (human, UniProt Q12809). The experiment is described as follows: primary screen, population patch clamp on CHO cells stably expressing hERG.
Chain of human ether-à-go-go-related gene (hERG) potassium channel (Q12809 whole entry, looked up): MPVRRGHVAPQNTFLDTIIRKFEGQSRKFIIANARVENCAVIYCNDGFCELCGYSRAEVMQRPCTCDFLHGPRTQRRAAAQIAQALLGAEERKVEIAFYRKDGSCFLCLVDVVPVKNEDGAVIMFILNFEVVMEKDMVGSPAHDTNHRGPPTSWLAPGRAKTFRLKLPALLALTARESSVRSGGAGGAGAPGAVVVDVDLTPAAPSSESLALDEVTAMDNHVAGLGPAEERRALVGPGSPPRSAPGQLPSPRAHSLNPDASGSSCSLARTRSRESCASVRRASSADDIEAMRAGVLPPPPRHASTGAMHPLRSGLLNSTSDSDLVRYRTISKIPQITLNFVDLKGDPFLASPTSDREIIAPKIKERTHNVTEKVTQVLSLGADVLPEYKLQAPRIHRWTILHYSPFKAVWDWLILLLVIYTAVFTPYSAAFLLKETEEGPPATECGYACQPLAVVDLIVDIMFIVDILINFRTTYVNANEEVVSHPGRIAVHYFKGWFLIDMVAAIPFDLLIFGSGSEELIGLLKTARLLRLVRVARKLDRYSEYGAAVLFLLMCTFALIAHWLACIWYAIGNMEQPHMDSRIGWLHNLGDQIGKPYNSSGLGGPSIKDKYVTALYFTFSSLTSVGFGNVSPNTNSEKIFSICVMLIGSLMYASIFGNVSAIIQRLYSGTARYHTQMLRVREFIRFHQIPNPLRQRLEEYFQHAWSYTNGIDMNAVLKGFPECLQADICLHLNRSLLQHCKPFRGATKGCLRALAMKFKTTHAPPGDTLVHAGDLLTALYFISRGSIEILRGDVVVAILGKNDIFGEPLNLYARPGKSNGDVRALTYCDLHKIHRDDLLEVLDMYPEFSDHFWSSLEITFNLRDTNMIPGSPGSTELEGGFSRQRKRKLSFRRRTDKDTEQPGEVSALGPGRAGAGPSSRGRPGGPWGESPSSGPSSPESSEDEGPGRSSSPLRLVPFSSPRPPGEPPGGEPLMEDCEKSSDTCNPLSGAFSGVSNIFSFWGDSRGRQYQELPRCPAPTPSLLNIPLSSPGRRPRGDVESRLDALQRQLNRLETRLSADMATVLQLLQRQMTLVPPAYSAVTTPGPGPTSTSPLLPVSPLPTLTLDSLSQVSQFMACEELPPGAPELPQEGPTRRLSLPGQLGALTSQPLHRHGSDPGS
As to `CC1CCc2nc(NC(=O)c3ccco3)sc2C1` (stereo not drawn), the “hERG current change (%, negative = inhibition) at 10uM” value is on record as -15.8%.
The figure for `CC1C(=O)N2CCCc3cc(NC(=O)C(=O)NCCCc4ccccc4)cc1c32` (stereo not drawn) is -28.4%; for `Cc1nnc(SCC(=O)N(CC(C)C)C2CCS(=O)(=O)C2)n1N` (stereo not drawn) it is 11.7%; for `O=C(COc1ccc(Cl)cc1)N1CCCCC1` it is -5.82%.
`CCCCN(CCCC)CCCOC(=O)c1ccc(N)cc1`: the “hERG current change (%, negative = inhibition) at 10uM” value is reported as -40.9%.
The value for `CCOC(=O)Cn1cc(/C=N/NC(=O)c2cc3ccccc3o2)c2ccccc21` was -15%.
Regarding `CC(C)C(C)(C#N)NC(=O)CSc1nncn1-c1ccccc1` (stereo not drawn), the “hERG current change (%, negative = inhibition) at 10uM” value was 15.4%.
Take `CCC1(c2ccccc2)C(=O)N(COC)C(=O)N(COC)C1=O`: the “hERG current change (%, negative = inhibition) at 10uM” value worked out at 3.91%.
The figure for `CC(OC(=O)CCN=C1NS(=O)(=O)c2ccccc21)C(=O)N(C)C1CCCCC1` (stereo not drawn) is 11.7%; for `COc1cc(C(=O)N2CCCc3ccccc32)cc(OC)c1OC` it is 7.87%; for `Cc1ccc(C(=O)N/C(=C/c2ccco2)C(=O)NCCc2c[nH]c3ccccc23)cc1` it is -46%.
The figure for `Cc1ccc(S(=O)(=O)N2CCC(=O)N(C(COCc3cccc(C(F)(F)F)c3)C(C)C)CC2)cc1` (stereo not drawn) is -21.8%; for `COc1ccccc1NCc1ccc([N+](=O)[O-])s1` it is -47.7%.
As for `CCOC(=O)c1cccc(C(=O)Nc2nc3ccc(OC)cc3s2)n1`, the “hERG current change (%, negative = inhibition) at 10uM” value was 23.5%.
The figure for `CCC(C)(C)n1nnnc1C(c1ccccc1F)N1CCN(C(=O)c2ccco2)CC1` (stereo not drawn) is -13.9%; for `O=C(CSc1nc(-c2ccccc2)c(-c2ccccc2)[nH]1)NCC1CCCO1` (stereo not drawn) it is -0.72%.
On to `Cc1c(Br)c(C(F)(F)F)nn1CC(=O)NCc1ccccc1`, for which the “hERG current change (%, negative = inhibition) at 10uM” value was determined as 31.8%.
The value for `Fc1cccc(NC(=S)NCc2ccccc2Cl)c1` was 8.01%; that for `Cc1nnc(NC(=O)c2cccc(S(=O)(=O)N3CCCC3)c2)s1` was 12.3%; that for `N#Cc1ccsc1NC(=O)CN1CCN(c2ccc(O)cc2)CC1` was -19.5%.
The value for `CCOc1ccccc1N(CC(=O)N1CCCCCC1)S(=O)(=O)c1ccc(C)cc1` was -31.9%; that for `O=C(Nc1cccc(O)c1)C1CC(c2ccc(Cl)cc2)=NO1` (stereo not drawn) was -12.9%; that for `O=C(CSc1ccc(-c2ccncc2)nn1)N1CCCC1` was -1.43%.
The value for `O=C(NCCN1CCOCC1)/C(=C/c1ccc(F)cc1)NC(=O)c1ccccc1` was -67.8%.
Take `NC(=O)NC(=O)CSc1nnc(-c2ccc(Cl)cc2)n1CC1CCCO1` (stereo not drawn): the “hERG current change (%, negative = inhibition) at 10uM” value is 29.3%.
With `O=C(NC(=S)N1CCCCC1)c1cccnc1`, the “hERG current change (%, negative = inhibition) at 10uM” value was determined as 20.3%.
`COc1cccc(-c2cc(C(=O)NCC3CCCO3)c3cc(C)cc(C)c3n2)c1` (stereo not drawn): the “hERG current change (%, negative = inhibition) at 10uM” value amounted to 18.8%.
The value for `Cc1cc(CN2CCCCC2C(=O)Nc2ccc(Oc3cccnc3)cc2)oc1C` (stereo not drawn) was -31.1%; that for `CCN(CC)CCN(C(=O)c1ccc([N+](=O)[O-])cc1)c1nc2c(OC)cccc2s1.Cl` was -73.2%.
The value for `COc1cccc(C(C(=O)NC2CCCC2)N(C(=O)c2ccco2)C2CC2)c1OC` (stereo not drawn) was 1.89%.
The value for `Cc1occc1C(=O)NNC(=O)Nc1ccc(Cl)c(Cl)c1` was -4.8%.
For `CCN(CC(=O)Nc1c(F)cccc1F)C(=O)COc1cccc2c1OC(C)(C)C2`, the “hERG current change (%, negative = inhibition) at 10uM” value was -7.88%.
The value for `O=C(O)CCCC(=O)Nc1nc(-c2ccc(F)cc2)cs1` was 0.721%; that for `O=C1c2ccc(Cl)cc2S(=O)(=O)c2cccc(C(=O)N3CCN(c4ncc(Br)cn4)CC3)c21` was -45.2%; that for `O=C(NC(=S)Nc1ccc(N2CCCCC2)c(Cl)c1)c1cccs1` was -16.9%.
The value for `Cc1cc2nc(-c3ccc(SCC(=O)Nc4ccc(S(=O)(=O)N5CCCC5)cc4)nc3)[nH]c2cc1C` was 8.52%.
The value for `CCCC(=O)NC(=S)Nc1ccc(C(C)=O)cc1` was 17.5%; that for `Cl.Fc1cccc(Cl)c1CNC(c1ccccc1)c1ccccc1` was 14.1%; that for `Cc1sc2ncnc(N/N=C/c3ccccc3O)c2c1C` was -1.58%.
`N/C(=N\c1nc2c(c(=O)[nH]1)CCCC2)Nc1ccccc1`: the “hERG current change (%, negative = inhibition) at 10uM” value was -9.47%.
The value for `CCCOc1cccc(C(=O)Nc2cccc(NC(=O)c3ccco3)c2)c1` was -21.8%.
The figure for `COc1cc(CCC(=O)OCC(=O)Nc2ccc(F)cc2F)cc(OC)c1OC` is 9.29%; for `CC(NC(=O)CNC(=O)c1ccco1)c1ccc(S(N)(=O)=O)cc1` (stereo not drawn) it is 21.6%.
The figure for `O=C(Nc1ccccc1)c1cc2ccccc2[nH]1` is 3.82%; for `O=C(NCC1CC1)Nc1cccc(C(F)(F)F)c1` it is 9.59%.
